Experimental data: article PMC4336329 (PLoS ONE, 2015)
The whole screen tested about 310,000 compounds, of which about 2,200 (0.71%) showed an effect of 50% or more. The effect is printed as a negative number. The list shows a part of the results.

These compounds were tested against human ether-à-go-go-related gene (hERG) potassium channel (human, UniProt Q12809) (assay: primary screen, population patch clamp on CHO cells stably expressing hERG).
human ether-à-go-go-related gene (hERG) potassium channel, sequence (Q12809 whole entry, looked up): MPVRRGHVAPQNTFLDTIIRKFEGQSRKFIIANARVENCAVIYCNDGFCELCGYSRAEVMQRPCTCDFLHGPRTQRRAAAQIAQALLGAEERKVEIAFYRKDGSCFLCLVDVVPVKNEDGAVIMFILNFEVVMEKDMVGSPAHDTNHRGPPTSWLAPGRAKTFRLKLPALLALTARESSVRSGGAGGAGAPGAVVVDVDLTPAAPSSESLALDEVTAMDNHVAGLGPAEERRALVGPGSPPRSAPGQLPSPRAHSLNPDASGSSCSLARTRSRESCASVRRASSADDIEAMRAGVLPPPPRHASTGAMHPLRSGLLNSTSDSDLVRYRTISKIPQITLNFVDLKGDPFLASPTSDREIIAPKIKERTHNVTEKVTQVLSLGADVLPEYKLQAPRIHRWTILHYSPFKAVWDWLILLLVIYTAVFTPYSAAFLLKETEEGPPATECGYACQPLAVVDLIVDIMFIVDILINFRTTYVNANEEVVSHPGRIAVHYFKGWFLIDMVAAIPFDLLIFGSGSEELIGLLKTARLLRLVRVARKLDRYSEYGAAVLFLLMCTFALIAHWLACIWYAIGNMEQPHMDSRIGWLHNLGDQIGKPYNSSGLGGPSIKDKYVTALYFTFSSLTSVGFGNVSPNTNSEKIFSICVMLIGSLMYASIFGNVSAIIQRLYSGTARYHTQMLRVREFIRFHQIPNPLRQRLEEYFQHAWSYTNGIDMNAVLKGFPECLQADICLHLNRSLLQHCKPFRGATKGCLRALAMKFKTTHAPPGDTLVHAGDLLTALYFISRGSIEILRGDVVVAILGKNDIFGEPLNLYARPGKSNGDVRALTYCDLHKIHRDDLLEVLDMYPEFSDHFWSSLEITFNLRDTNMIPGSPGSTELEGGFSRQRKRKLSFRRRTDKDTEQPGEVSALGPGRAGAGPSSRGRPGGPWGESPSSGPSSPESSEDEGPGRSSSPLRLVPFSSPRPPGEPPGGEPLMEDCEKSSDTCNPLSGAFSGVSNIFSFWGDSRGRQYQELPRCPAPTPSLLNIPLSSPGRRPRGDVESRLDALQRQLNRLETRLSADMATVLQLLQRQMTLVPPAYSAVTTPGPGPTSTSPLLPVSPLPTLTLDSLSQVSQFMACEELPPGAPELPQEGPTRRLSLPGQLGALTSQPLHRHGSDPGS

Compound	hERG current change (%, negative = inhibition) at 1uM [%]
COc1cc(/C=C/C(=O)NC(=O)c2ccccc2O)ccc1OC(C)=O	6.59
COc1ccc(/C=C/C(=O)N(C)C2CCCCC2)cc1Br	6.47
CCNc1nc(SCCOc2ccc(C)cc2)nc(N(C)C)n1	8.71
Cc1cc(C)n(CC(=O)n2c3ccccc3c3ccccc32)n1	5
O=C(O)CN(Cc1ccccc1)S(=O)(=O)c1ccc2c(c1)OCCO2	9.21
CC(=O)c1cccc(NC(=O)c2ccc(N(C)S(=O)(=O)c3ccc(C)cc3)cc2)c1	10.3
Cc1ccc(C(C(=O)NC2CCCCC2)N(C(=O)c2csnn2)c2ccccc2F)o1 (stereo not shown)	12.7
CCOc1ccc(NC(=O)c2ccc(N)cc2)cc1	3.78
COc1ccc(-c2cc(C(F)(F)F)c3c(=O)n(-c4ccccc4)[nH]c3n2)cc1	16
COc1ccc(Cl)cc1NC(=O)CNc1ccccc1N1CCOCC1	25.4
O=C(c1cc2ccccc2o1)N1CCCCCC1	10
COc1nc2c(C)cccc2cc1-c1noc(-c2ccco2)n1	-5.92
NC(=O)c1c(NC(=O)c2cc3ccccc3o2)sc2c1CCC2	9.41
O=C(CNS(=O)(=O)c1ccc(Br)cc1Cl)OCC(=O)N1CCCC1=O	4.8
O=C(N/N=C\c1c(O)ccc2ccccc12)c1ccc(Cn2cccn2)o1	1.04
O=c1[nH]c(C2CCCN(S(=O)(=O)c3ccccc3)C2)nc2c1nnn2Cc1ccc(OC(F)(F)F)cc1 (stereo not shown)	25.8
COc1ccc(CN2CC(C(N)=O)Oc3ccccc32)cc1F (stereo not shown)	13.3
Cc1oc2c(CN3CCCCC3C)c(O)ccc2c(=O)c1-c1ccc(Br)cc1 (stereo not shown)	-13.4
CCCn1c(SCC(=O)Nc2ccccc2C(=O)OC)nc2c1c(=O)n(C)c(=O)n2C	-4.05
Cc1cccc(C(=O)NCC(=O)N2CC(=O)Nc3ccccc32)c1	22.6
CC(NC(=O)c1ccccc1F)c1nnc(SCC(=O)N2CCN(c3ccccc3)CC2)n1C (stereo not shown)	5.17
O=C(c1ccco1)N1CCN(C(=O)c2ccc(-c3cccc(C(F)(F)F)c3)o2)CC1	-63.5

Compound	hERG current change (%, negative = inhibition) at 1uM [%]
COc1ccccc1N1CCN(C(=O)CCc2nnc3ccc(N4CCC(C)CC4)nn23)CC1	-3.25
COc1ccc(NC(=O)Nc2ccc3c(c2)CCC3)cc1	-3.76
CCCCc1ccc(NC(=O)CSc2nc(=O)n(CCN(CC)CC)c3c2CCCC3)cc1	2.3
CCCCc1ccc(-c2csc(/C(C#N)=C\c3ccc(C)o3)n2)cc1	11.5
CCC(=O)N1CCC2(CC1)Oc1ccc(F)cc1C(=O)C21CC(c2ccc(Cl)cc2)=NO1 (stereo not shown)	7.96
CC(Cc1ccccc1)C(=O)NCc1nc2ccccc2s1 (stereo not shown)	10.4
Cc1ccc(NC(=O)c2cc([N+](=O)[O-])ccc2NCc2cccnc2)cc1Cl	0.0426
CCOC(=O)N1CCN(S(=O)(=O)c2ccc(C(=O)NNc3nc4ccc(Cl)cc4s3)cc2)CC1	6.7
CCN(CC)S(=O)(=O)c1cccc(C(=O)N[C@H](C(=O)Nc2nc3ccc(F)cc3s2)C(C)C)c1	4.44
CCc1ccc(NC(=O)CS(=O)CC(=O)Nc2ccc(F)cc2F)cc1 (stereo not shown)	1.48
CCCOc1ccccc1C(=O)NCCCC(=O)O	6.66
CC(C(=O)c1ccc2ccccc2c1)N1CCCCC1 (stereo not shown)	4.52
COC(=O)Cc1ccc(NC(=S)NCc2ccccc2Cl)cc1	4.85
CCOC(=O)c1c(NC(C)=O)sc2c1CCC(C=NCCCN(CC)CC)=C2Sc1ccccc1	8.71
Cc1cc(Cl)ccc1NC(=S)N1CCN(C(=O)c2ccco2)CC1	4.35
COc1ccc(CCNC(=O)c2ccc(-c3ccc([N+](=O)[O-])cc3Cl)o2)cc1	7.52
Cc1ccc(C(=O)N2CCCC2)cc1S(=O)(=O)N1CCCCC1	13.3
COC(=O)C1CCN(C(=O)c2cc(=O)[nH]c3ccccc23)CC1	4.27
COC(=O)c1cc(S(=O)(=O)N2CCC(c3cc(OC)ccc3OC)C2)c[nH]1 (stereo not shown)	12.1
NC(=O)Cc1nc(-c2ccc(F)cc2)cs1	10.1
O=C(CN1CCC(C(O)(c2ccccc2)c2ccccc2)CC1)Nc1cc(Cl)ccc1Cl	1.18
